From PubChem BioAssay AID504706 (National Center for Advancing Translational Sciences (NCATS), 2011)
In all, about 320,000 compounds went through this assay and about 200 (0.062%) were called active. This list was built around the results that the source calls inconclusive (neither active nor inactive); the mix of calls is not that of the screen. Calls follow the shape of the dose curve; as a rule, active = well fitted activation curve with a large enough effect; inconclusive = small, poorly fitted or top-dose-only effect; inactive = no such curve, though single readings can be large or run the other way. Potencies of inconclusive entries are left out as doubtful fits.

Test: qHTS assay for re-activators of p53 using a Luc reporter; also: nearly all actives have a fitted effect of over 45% in size; as to activity change, positive = activation: % of control where 0% means no effect
Settings: H1299 p53-A138V BP100-luciferase reporter, luminescence, 24 h; series mostly up to 92.2 µM; activity change, positive = activation: at the top concentration
Summary of the method: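 p53-null H1299 cells stably carrying temperature-sensitive p53-A138V and a BP100-luciferase reporter were pinned with compounds (4-point, 1:5 series) and held 24 hrs at 37 deg C. Luminescence was read 10 min after detection reagent.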
Potency is read from the fitted curve at half-maximal effect; tags tell the direction and shape of the fitted curve.

| SMILES | activity change, positive = activation | Potency |
| --- | --- | --- |
| CC(C)Oc1ccc(C(=O)/C=C2/C(=O)Nc3ccccc32)cc1 | inactive: 9.37% | – |
| O=C(Nc1nnc(SCc2ccc(Cl)cc2)s1)c1cnccn1 | inactive: -0.963% | – |
| CNc1n[nH]c(=S)s1 | inactive: 0.76% | – |
| CCCCn1c(CN2CCN(c3cccc(Cl)c3)CC2)nc2c1c(=O)n(C)c(=O)n2C | – | inconclusive [activator, partial curve, poor fit] |
| CC(=O)Nc1cc2nn(-c3ccccc3)nc2cc1Cl | – | inconclusive [activator, partial curve, poor fit] |
| N#Cc1c(N2CCCC2)nc(N)c2c(N)nc(N3CCCC3)cc12 | – | inconclusive [activator, partial curve, poor fit] |
| Cc1[nH]c2ccccc2c1/C=N/NC(=O)c1cccc(S(=O)(=O)Nc2cccc(C(F)(F)F)c2)c1 | inactive: 2.1% | – |
| COc1cccc(-c2nc3ccccc3s2)c1 | – | inconclusive [activator, partial curve, poor fit] |
| O=C(COC(=O)c1cccc([N+](=O)[O-])c1)c1ccc2c(c1)OCO2 | – | inconclusive [activator, full curve, poor fit] |
| COc1ccc(CN2CCN(C3CCC3)CC2CCO)cc1C (stereo not drawn) | – | inconclusive [activator, single point] |
| Cc1ccc(S(=O)(=O)NCCC(=O)OCC(=O)Nc2cccc(S(=O)(=O)NC3=NCCCCC3)c2)cc1 | inactive: -1.43% | – |
| Cc1ccc(Oc2nnc(-c3cccs3)c3ccccc23)cc1C | inactive: -8.21% | – |
| COc1ccc(C(=O)Nn2c(SCC(=O)N3CCC(C)CC3)nc3ccccc3c2=O)cc1 | inactive: -6.94% | – |
| Cc1ccc(S(=O)(=O)CC(=O)Nc2nc3ccccc3s2)cc1 | inactive: 0.887% | – |
| Cn1c(=O)c(C(=O)Nc2cnccn2)c(O)c2ccccc21 | inactive: 27.6% | – |
| CC(C)c1ccc(-c2nn[nH]n2)cc1 | – | inconclusive [activator, partial curve, poor fit] |
| O=[N+]([O-])c1ccc(N2N=C(c3ccccc3)CC2c2ccccc2O)cc1 (stereo not drawn) | inactive: -9.97% | – |
| CCOc1ccccc1/C=C(\NC(=O)c1ccccc1)C(=O)NCCC(=O)O | – | inconclusive [activator, partial curve, poor fit] |
| O=C(NC1CCCCC1)c1ccc2c(c1)OCCO2 | – | inconclusive [activator, partial curve, poor fit] |
| CCn1ncc(/C=C/C(=O)Nc2c(C)nn(Cc3ccc(Cl)cc3Cl)c2C)c1C | – | inconclusive [activator, full curve, poor fit] |
| CCc1ccc(-c2cc(C)no2)cc1S(=O)(=O)NCCCN1CCN(c2ccccc2)CC1 | inactive: -0.0581% | – |
| Cc1noc(C)c1S(=O)(=O)N1CCC(C(=O)N2CCC(N3CCCCC3)CC2)CC1 | – | inconclusive [activator, single point] |
| Oc1ccc(N=C/C=C/c2ccc(Br)cc2)cc1-c1nc2ccccc2s1 | – | inconclusive [activator, partial curve, poor fit] |
| CC(Cc1cccs1)NC(=S)Nc1ccc(F)cc1 (stereo not drawn) | – | inconclusive [activator, partial curve, poor fit] |

| SMILES | activity change, positive = activation | Potency |
| --- | --- | --- |
| Cc1ccc(NC(=O)CSc2ncccn2)c([N+](=O)[O-])c1 | – | inconclusive [activator, partial curve, poor fit] |
| CCOc1ncccc1C(=O)OCC(=O)c1ccccc1 | inactive: 13.4% | – |
| COc1ccc(-c2cc3cc(OC)c(OC)cc3c(C)n2)cc1 | inactive: 4.17% | – |
| Cc1ncc([N+](=O)[O-])n1CC(C)O (stereo not drawn) | inactive: 6.15% | – |
| CCC(C)[C@H](NC(=O)NCc1ccc(F)cc1)C(=O)O (stereo partly drawn) | inactive: -0.828% | – |
| Cc1cccc(/C=C/c2nc3ccccc3c(=O)[nH]2)c1 | inactive: 3.89% | – |
| O=C(Nc1ncccc1O)c1ccc(S(=O)(=O)N2CCCC2)cc1 | – | inconclusive [activator, full curve, poor fit] |
| O=C(COc1ccc(Cl)cc1Cl)NCc1ccco1 | – | inconclusive [activator, partial curve, poor fit] |
| O=C(OCC(=O)N1CCCC1)c1cncc(Br)c1 | – | inconclusive [activator, partial curve, poor fit] |
| CN(C)CCCNS(=O)(=O)c1cc(Cl)ccc1Cl | – | inconclusive [activator, full curve, poor fit] |
| O=C1CCCC2=C1C(c1ccco1)Nc1ccc3ccccc3c12 (stereo not drawn) | – | inconclusive [activator, partial curve, poor fit] |
| CC1CCC/C(=C\Nc2ccc(O)cc2)C1=O (stereo not drawn) | inactive: 24.8% | – |
| CCCCOc1ccc(/C(N)=N/O)cc1 | – | inconclusive [activator, partial curve, poor fit] |
| O=C1C(=O)N(CCOCCO)C(c2ccccn2)/C1=C(\O)c1ccccc1 (stereo not drawn) | – | inconclusive [activator, single point] |
| Oc1ccc(/C=N/N(c2ccccc2)c2ccccc2)cc1O | inactive: -2.2% | – |
| COc1ccccc1-n1c(=S)sc2c(=O)n(Cc3ccco3)c(SC)nc21 | inactive: -2.78% | – |
| Cc1cccc2c1ncc1c(=O)n(-c3ccccc3)[nH]c12 | – | inconclusive [activator, full curve] |
| O=C(OCC1COc2ccccc2O1)c1ccccc1F (stereo not drawn) | – | inconclusive [activator, full curve, poor fit] |
| CCCc1ccc(C2C3=C(CC(C)(C)CC3=O)NC3=C2C(=O)c2ccccc23)cc1 (stereo not drawn) | inactive: -15.9% | – |
| CN(C)c1ccc(/C=C/c2nnnn2-c2ccccc2)cc1 | – | inconclusive [activator, full curve, poor fit] |
| Cn1c(N/N=C/c2ccccc2)nc2sc3c(c2c1=O)CCC3 | inactive: 2.78% | – |
| Cc1cccc(-n2cnc3cc(C(=O)N4CCCCC4)ccc32)c1 | – | inconclusive [activator, single point] |
| O=C1c2ccccc2C(=O)N1CCSC(=S)N1CCOCC1 | – | inconclusive [activator, full curve, poor fit] |
| O=C1OC(Cc2ccccn2)C(O)=C1C1=NCCCN1 (stereo not drawn) | – | inconclusive [activator, partial curve, poor fit] |
